Data published in PubChem BioAssay AID504466 (National Center for Advancing Translational Sciences (NCATS), 2011).
The whole screen tested about 330,000 compounds, of which about 4,200 (1.3%) were called active. This list was built around the results that the source calls inconclusive (neither active nor inactive); the mix of calls is not that of the screen. The call rests on the fitted dose curve; in most records, active means well fitted activation curve with a large enough effect; inconclusive means small, poorly fitted or top-dose-only effect; inactive means no such curve, though single readings can be large or run the other way. Where the call is inconclusive, the potency comes from a doubtful curve fit.

experiment: qHTS screen for small molecules that induce genotoxicity in human embryonic kidney (HEK293T) cells expressing luciferase-tagged ELG1; settings: HEK293T ELG1-luciferase reporter, luminescence, 16 h; series mostly up to 46 µM; further: nearly all actives have a fitted effect of over 60% in size
In short: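 Luminescence read-out: rising ELG1-luciferase signal, reflecting elevated ELG1 protein under genetic stress, flags genotoxic compounds. Cells were treated for 16 hr at 37 °C before ONE-Glo detection.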
Potency means the concentration at half of the fitted maximal effect; tags describe the fitted curve by direction and shape.

SMILES	Potency
CCN1CCN(c2ccc(NC(=O)c3ccccc3F)cc2Cl)CC1	inconclusive: 25.9 µM [activator, single point]
O=C(NCc1ccccc1)c1cc2ccc(O)cc2oc1=O	inconclusive: 20.6 µM [activator, single point]
CCOC(=O)c1ccc(NC(=O)CN(C)S(=O)(=O)c2ccc(Br)s2)cc1	inactive
CCCCNC(=O)c1cc(-c2ccc3c(c2)OCO3)on1	inconclusive: 7.3 µM [activator, partial curve]
Nc1c(-c2ccc(Cl)cc2)cnc2c(-c3ccccc3)cnn12	active: 1.64 µM
O=C1NCCN/C1=C\C(=O)c1ccc(Cl)cc1	inconclusive: 8.2 µM [activator, partial curve]
O=C(Nc1ccc(C(=O)N2CCCC2)cc1)c1ccccc1F	active: 8.2 µM
Cc1nc2nc(NCc3cccs3)nn2c(C)c1Cl	inconclusive: 23.1 µM [activator, partial curve, poor fit]
COc1ccc(-c2csc(NC(=S)NC(=O)/C=C/c3ccco3)n2)cc1Br	inconclusive: 10.3 µM [activator, partial curve, poor fit]
COc1cccc(C(=O)Nc2ccc3c(c2)OCO3)c1OC	inconclusive: 6.51 µM [activator, partial curve]
Oc1c(N=Nc2ccccc2)sc2ccccc12	active: 2.31 µM
Cc1nn(-c2nnc(NC3CCCCC3)nn2)c(C)c1Br	active: 18.4 µM
NC(=O)c1ccsc1NC(=O)c1ccc(S(=O)(=O)N2CCCCC2)cc1	inconclusive: 20.6 µM [activator, partial curve, poor fit]
Nc1c(C(=O)NCC2CCCO2)sc2nc3c(c(-c4ccco4)c12)CC/C3=C\c1ccco1 (configuration not stated)	inactive
O=C(O)c1cnn(-c2nc(-c3cccc([N+](=O)[O-])c3)cs2)c1C(F)(F)F	inactive
N/C(=N\O)c1ccc(N2CCN(c3ncccc3C(F)(F)F)CC2)nc1	inconclusive: 9.2 µM [activator, partial curve, poor fit]
C/C(=N\NC(=O)c1csc(C)c1C)c1ccc(C)s1	inconclusive: 16.4 µM [activator, partial curve, poor fit]
Nc1nc(CSc2ncccn2)nc(Nc2ccccc2)n1	inconclusive: 16.4 µM [activator, partial curve]
CCCCc1ccc(NC(=O)C2CCCO2)cc1 (configuration not stated)	inconclusive: 10.3 µM [activator, partial curve]
CCCC(c1nnnn1CS(=O)(=O)c1ccc(C)cc1)N1CCN(c2ccccc2)CC1 (configuration not stated)	inactive
O=C(c1ccc(-c2ccccc2)cc1)N1CCCC1	inconclusive: 20.6 µM [activator, single point]
CC(C)(C)[C@H]1CCC(=O)N([C@H](CC#N)Cc2ccccc2)CC1	inactive
Cc1ccc(S(=O)(=O)N2CCCC2)cc1C(=O)NCCN1CCOCC1	inconclusive: 16.4 µM [activator, partial curve, poor fit]
CNc1nnc(-c2cc3cc(Cl)ccc3oc2=O)s1	active: 18.4 µM

SMILES	Potency
N/C(=N\OC(=O)c1ccccc1)c1ccccn1	inconclusive: 2.91 µM [activator, partial curve]
COc1c(C)cccc1C(=O)Nc1ccc(N2CCN(S(C)(=O)=O)CC2)cc1	inconclusive: 8.2 µM [activator, partial curve, poor fit]
CN(C)c1ccc(N=c2sc3ccccc3n2C)cc1	active: 6.51 µM
CC(C)Cc1cc(C(=O)Nc2cccc(O)c2)no1	inconclusive: 3.66 µM [activator, single point]
O=C(Nc1ccc(Cl)c(Cl)c1)N1CC=CCC1	inconclusive: 2.31 µM [activator, full curve, poor fit]
COc1cccc2cc(C(=O)Nc3cc(C)cc(C)c3)/c(=N/NS(=O)(=O)c3ccccc3)oc12	inconclusive: 29.1 µM [activator, single point]
COc1cc(OC)cc(-c2c(C#Cc3ccsc3)c3cc(-c4cc(F)cc(F)c4)ccc3n2C)c1	inactive
CCOC(=O)CC(=O)COc1nc2cc3c(nc2o1)CCCC3	inconclusive: 20.6 µM [activator, single point]
O=C(Cc1ccccc1)c1ccc2c(c1)OCCO2	active: 18.3 µM
CCC(=O)Nc1ccc(NC(=O)CSc2nnnn2C(C)C)cc1	inactive
CC(O)CNc1ccc(-c2nn(C)c(=O)c3ccccc23)cc1[N+](=O)[O-] (configuration not stated)	inconclusive: 14.6 µM [activator, partial curve]
Cc1ccc(Sc2cc(C)nc(-c3ccccn3)n2)cc1	inactive
Cc1ccc(NC(=O)CC(=O)c2ccccc2)cc1C	inconclusive: 20.6 µM [activator, single point]
O=C(Nc1cccc2ccccc12)N1N=CCC1c1ccccc1 (configuration not stated)	inconclusive: 16.4 µM [activator, partial curve, poor fit]
Cc1ccc(Nc2nc(N)c3ccccc3n2)cc1C	inconclusive: 0.411 µM [activator, partial curve, poor fit]
O=C(NC1CC1)c1sc2cc(Cl)ccc2c1Cl	inconclusive: 13 µM [activator, partial curve, poor fit]
CC(=O)Nc1ccc(SCC(=O)c2cc(C)n(-c3ccccc3)c2C)cc1	inconclusive: 2.31 µM [activator, full curve]
CC12COC3(C(=O)Nc4ccc5ccccc5c4)CC1CCC32C (configuration not stated)	inconclusive: 13 µM [activator, partial curve, poor fit]
O=C(Cc1ccccc1)N/N=C/c1cc(Br)cc(Cl)c1O	inconclusive: 32.6 µM [activator, partial curve, poor fit]
CC(C)c1ccc(N2C=Nc3ccc(C(C)C)cc3C2)cc1	inconclusive: 20.6 µM [activator, single point]
CC(=O)N(C)c1nnc(-c2ccccn2)s1	inconclusive: 23.1 µM [activator, single point]
O=C(Cc1nc2ccccc2s1)c1ccc(O)cc1O	inconclusive: 1.12 µM [activator, full curve, poor fit]
S=C(Nc1ccc(-c2nc3ccccc3[nH]2)cc1)Nc1cccnc1	inconclusive: 18.3 µM [activator, partial curve, poor fit]
COc1ccccc1C(=O)COC(=O)c1cc(=O)[nH]c2ccccc12	inconclusive: 25.9 µM [activator, partial curve, poor fit]

SMILES	Potency
Cn1c(/C(C#N)=C/c2cccc(O)c2)nc2ccccc21	inconclusive: 10.3 µM [activator, partial curve, poor fit]
CC(C)OC(=O)c1cc(NC(=O)c2nn(C)cc2Br)cc(C(=O)OC(C)C)c1	inactive
Cn1c2ccccc2c(=O)c2cc(C#CC3(O)CCCCC3)ccc21	active: 0.116 µM
COCCNC(=O)c1ccc(C)cc1C	inactive
O=C(COc1ccc(Br)cc1)NCC1COc2ccccc2O1 (configuration not stated)	inactive
O=Cc1ccc(-c2ccccc2C(=O)O)o1	inactive
CCSc1nnc(NC(=O)C(C)(C)C)s1	inconclusive: 18.4 µM [activator, partial curve, poor fit]
Oc1[nH]c(=S)sc1C=C1N=c2ccccc2=N1	inconclusive: 18.3 µM [activator, partial curve, poor fit]
O=C(Nc1ccc(Nc2ccccc2)cc1)c1ccco1	active: 9.2 µM
c1ccc(NCC2OCc3ccccc3CO2)cc1	inconclusive: 13 µM [activator, partial curve]
CCNC(=O)COc1ccc(-c2ccccc2)cc1	inconclusive: 11.2 µM [activator, partial curve, poor fit]
CC(C)c1nc(C(=O)N2CCCC(N3CCN(c4cccc(Cl)c4)CC3)C2)cs1 (configuration not stated)	inactive
COc1ccc(N2CC(O)=C(c3nc4ccccc4s3)C2=N)cc1	inconclusive: 7.08 µM [activator, partial curve]
CN1CCN(c2ccc(NC(=O)c3cc(Cl)c4c(c3)OCCO4)cc2)CC1	inactive
Cc1cc(C)n2nc(-c3cccc(Br)c3)cc2n1	inconclusive: 10.3 µM [activator, partial curve]
CSc1nc(-c2ccc(Cl)cc2)c(C#N)c(=O)[nH]1	inactive
CCOc1c(Cl)cc(C(=O)Nc2cccc(C(=O)O)c2)cc1Cl	inconclusive: 3.26 µM [activator, partial curve, poor fit]
COc1cc(/C=C(\C#N)c2nc3ccc(C)cc3[nH]2)cc([N+](=O)[O-])c1O	inconclusive: 20.6 µM [activator, single point]
NC1=NC(c2cccc(Cl)c2)N(CCc2ccc(F)cc2)C(N)=N1 (configuration not stated)	inactive
Cc1ccc(C(=O)NCCc2nnc3ccc(SCC(=O)N4CCCCC4)nn23)cc1	inactive
O=[N+]([O-])c1ccc2c(c1)Nc1nc3ccccc3nc1N2	inconclusive: 32.6 µM [activator, partial curve, poor fit]
CCN1C(=O)c2cccc3c(S(=O)(=O)N(C(=O)c4ccncc4)c4ccc(OC)cc4)ccc1c23	inconclusive: 29.1 µM [activator, partial curve, poor fit]
CCn1c(SCC(=O)Nc2ccc(NC(C)=O)cc2)nc2c([nH]c3ccccc32)c1=O	inconclusive: 5.17 µM [activator, full curve]
Nc1ncnc2c1ncn2[C@@H]1O[C@H](CNCc2cccc(C#Cc3ccccc3)c2)[C@@H](O)[C@H]1O	inactive
